# The list shows a part of the results. Repeats are few or missing, and single values can be far off.
# Tested on: SkMel28
# Test: cell count relative to DMSO control; melanoma cells; higher = more viable cells
# Conditions: library dose: low library concentration; 72 h
# 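Also: cell number obtained by counting DAPI-stained nuclei in high-throughput microscope images with image analysis software, screen run in 1,536-well plates.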
row,SMILES,cell count
1,"CC1(C)CCC(c2ccc(Cl)cc2)=C(CN2CCN(c3ccc(C(=O)NS(=O)(=O)c4ccc(N[C@H](CCN5CCOCC5)CSc5ccccc5)c(S(=O)(=O)C(F)(F)F)c4)cc3)CC2)C1 + C[C@]1(c2nc3c(C(N)=O)cccc3[nH]2)CCCN1 [Veliparib] (first compound 0.4 µM, partner dose 1.4 µM)",81.1%
2,"Cc1ccc(Nc2nccc(N(C)c3ccc4c(C)n(C)nc4c3)n2)cc1S(N)(=O)=O [Pazopanib] + CC(=O)c1c(C)c2cnc(Nc3ccc(N4CCNCC4)cn3)nc2n(C2CCCC2)c1=O [palbociclib] (first compound 0.4 µM, partner dose 0.04 µM)",102%
3,"O=C(/C=C/c1cccnc1)NCCCCC1CCN(C(=O)c2ccccc2)CC1 + CC(=O)O[C@@]12CO[C@@H]1C[C@H](O)[C@@]1(C)C(=O)[C@H](O)C3=C(C)[C@@H](OC(=O)[C@H](O)[C@@H](NC(=O)OC(C)(C)C)c4ccccc4)C[C@@](O)([C@@H](OC(=O)c4ccccc4)[C@H]21)C3(C)C [Docetaxel] (first compound 0.01 µM, partner dose 0.0001 µM)",42.7%
4,"O=C(/C=C/c1cccnc1)NCCCCC1CCN(C(=O)c2ccccc2)CC1 + COc1ccc(C2=N[C@@H](c3ccc(Cl)cc3)[C@@H](c3ccc(Cl)cc3)N2C(=O)N2CCNC(=O)C2)c(OC(C)C)c1 [Nutlin-3] (first compound 0.01 µM, partner dose 0.1 µM)",92.5%
5,"O=C(/C=C/c1cccnc1)NCCCCC1CCN(C(=O)c2ccccc2)CC1 + COc1ccc(Cl)c(Nc2nc3ccccc3nc2NS(=O)(=O)c2cccc(NC(=O)C(C)(C)N)c2)c1 [XL147] (first compound 0.01 µM, partner dose 0.8 µM)",95.3%
6,"O=C(/C=C/c1cccnc1)NCCCCC1CCN(C(=O)c2ccccc2)CC1 + CCN(CC)CCCCNc1ncc2cc(-c3cc(OC)cc(OC)c3)c(NC(=O)NC(C)(C)C)nc2n1 [PD173074] (first compound 0.01 µM, partner dose 0.1 µM)",86.3%
7,"O=C(/C=C/c1cccnc1)NCCCCC1CCN(C(=O)c2ccccc2)CC1 + C[C@]1(O)C[C@@H](c2nc(-c3ccc4ccc(-c5ccccc5)nc4c3)c3c(N)nccn32)C1 [OSI906] (first compound 0.01 µM, partner dose 0.4 µM)",90.5%
8,"Cc1ccc(Nc2nccc(N(C)c3ccc4c(C)n(C)nc4c3)n2)cc1S(N)(=O)=O [Pazopanib] + CS(=O)(=O)CCNCc1ccc(-c2ccc3ncnc(Nc4ccc(OCc5cccc(F)c5)c(Cl)c4)c3c2)o1 [lapatinib] (first compound 0.4 µM, partner dose 0.8 µM)",103%
9,"CC1(C)CCC(c2ccc(Cl)cc2)=C(CN2CCN(c3ccc(C(=O)NS(=O)(=O)c4ccc(N[C@H](CCN5CCOCC5)CSc5ccccc5)c(S(=O)(=O)C(F)(F)F)c4)cc3)CC2)C1 + O=C(Nc1cccc(Cl)c1)Nc1ncc(CCNc2ncnc3ccsc23)s1 [SNS314] (first compound 0.4 µM, partner dose 0.0008 µM)",100%
10,"O=C(/C=C/c1cccnc1)NCCCCC1CCN(C(=O)c2ccccc2)CC1 + CO[C@H]1C[C@@H]2CC[C@@H](C)[C@@](O)(O2)C(=O)C(=O)N2CCCC[C@H]2C(=O)O[C@H]([C@H](C)C[C@@H]2CC[C@@H](OCCO)[C@H](OC)C2)CC(=O)[C@H](C)/C=C(\C)[C@@H](O)[C@@H](OC)C(=O)[C@H](C)C[C@H](C)/C=C/C=C/C=C/1C [everolimus] (first compound 0.01 µM, partner dose 0.02 µM)",47.7%
11,"CC1(C)CCC(c2ccc(Cl)cc2)=C(CN2CCN(c3ccc(C(=O)NS(=O)(=O)c4ccc(N[C@H](CCN5CCOCC5)CSc5ccccc5)c(S(=O)(=O)C(F)(F)F)c4)cc3)CC2)C1 + CO[C@H]1C[C@@H]2CC[C@@H](C)[C@@](O)(O2)C(=O)C(=O)N2CCCC[C@H]2C(=O)O[C@H]([C@H](C)C[C@@H]2CC[C@@H](OCCO)[C@H](OC)C2)CC(=O)[C@H](C)/C=C(\C)[C@@H](O)[C@@H](OC)C(=O)[C@H](C)C[C@H](C)/C=C/C=C/C=C/1C [everolimus] (first compound 0.4 µM, partner dose 0.02 µM)",34.9%

# Reference: the supplement of paper PMC4604168 (melanoma cell lines)
